The list shows a part of the results.

First the molecules themselves.
B1: chr2:25742488:25742589:-|CDS|ENSG00000143970|unk|total|mutant (ssRNA)
RNA: GGGAGUUCUACAGUCCGACGAUCCACUUUAAGUAAGGAGAAUUACCUGUUCACCCGAGGCCAAACAUUUGAUGAAAAGACCCCCGCCAGAGAUUUAAUUCAGGCAGCACAGAAGCAGAUGGCUCAUGCAGUGAGAGGUAAGGCCAACAGAGGAUUGAGCAUCA
B2: chrX:120613669:120613770:+|3pUTR|ENSG00000232119|msi1|FALSE|bound_elsewhere (ssRNA)
RNA: GGGAGUUCUACAGUCCGACGAUCUAUGCCUCCUGUAUAUCCUGUAAACAAAUAAGAUUGAUCAGAUUCAGGUUCAGUUUUUUUAGUGCCUUCUUUUGAGUAAAGUCAUACCAAACAGAUGCCCAGAACAUCUGGAUUUGGGUCCAACAGAGGAUUGAGCAUCA
B3: chr9:127087347:127088938:-|three_prime_utr|ENSG00000136859|control|control|control (ssRNA)
RNA: GGGAGUUCUACAGUCCGACGAUCAUAUACAUGUGUAUGAGCCUCCCUUGUGCACGUAUGUGUAUACCACAUAUAUAUGCAUUUAGAUAUACAUCACAUGUGAUAUAUCUAGAUCCAUAUAUAGGUUUGCCUUAGAUACCUAAACAACAGAGGAUUGAGCAUCA
B4: chr12:131960804:131960905:+|CDS|ENSG00000183495|unk|total|mutant (ssRNA)
RNA: GGGAGUUCUACAGUCCGACGAUCCCCUCAGCAAGCCCGUCGGCACCCCAGUCUCCCAGUUAUCAAAUACAGCAGCUGAUGAACCGGAGCCCUGCAACCGGGCAGAACGUGAACAUCACCCUGCAGAGCGUGGGCCCUGUCGUCCAACAGAGGAUUGAGCAUCA
B5: chr14:75048437:75048538:-|CDS|ENSG00000119684|unk|total|mutant (ssRNA)
RNA: GGGAGUUCUACAGUCCGACGAUCUCAGAAGCGUGUGACUUCCGAUGAGAGGAGCAAUUUCCAGGAAGCAUGUAAUAAUAUUUCCGAUUCCUAUGAGAUGUUUAAUUUGCAGUCAAAAGCUGUGAAAAGAAAAACUACUGCAGACAACAGAGGAUUGAGCAUCA
B6: chr8:41661800:41661941:-|CDS|ENSG00000029534|control|control|control (ssRNA)
RNA: GGGAGUUCUACAGUCCGACGAUCGGUUCGACAGAUAGACUUGUCCAGCGCCGAUGCCGCCCAGGAGCACGAGGAGGUGACUGUAGAGGGGCCCCUGGAGGAUCCCAGUGAGCUGGAGGUCGAUAUUGAUUACUUUAUGAAACACAACAGAGGAUUGAGCAUCA
B7: chr15:77046258:77046342:-|3pUTR|ENSG00000140391|msi1_unk|FALSE|overlapping (ssRNA)
RNA: GGGAGUUCUACAGUCCGACGAUCAAAAAUAUUUACUGUAGUCCAAUAAGAUAGCAGCUGUACAAAAUGACUAAAAUAGAUUGUAGGAUCAUAUGGCGUAUAUCUUGGUUCAUCUUCAAAAUCAGAGACUGAGCUUUGAAACUACAACAGAGGAUUGAGCAUCA
B8: chr19:46720021:46720126:-|3pUTR|ENSG00000090372|unk|total|mutant (ssRNA)
RNA: GGGAGUUCUACAGUCCGACGAUCGCCGCUCCUGGUAUCAGAGCUGCUUUCCAGAGGGCAGCACAGCCAGGGCCGGGUGUCUUCCGGGAUCAGUUUUUCCAAGACUCCAGAAGGUGCCAGGUUCUCCCCUUGAGCUCCUGCUCCCAACAGAGGAUUGAGCAUCA
B9: chr3:127036549:127036650:+|3pUTR|ENSG00000114554|msi1|FALSE|unique (ssRNA)
RNA: GGGAGUUCUACAGUCCGACGAUCGUCUACUGGGACAGCAGUCUCCGAGCUACUCCGUACCUCCCUCUGCCAGGUCGUGGAGUUAGGCCCCAGUCCCUACUUGUCACUGGUUCCCACUGUGCUCCUAACUGUGCAGCACCUGGGCAACAGAGGAUUGAGCAUCA
B10: chr14:92003418:92006448:-|CDS|ENSG00000100815|control|control|control (ssRNA)
RNA: GGGAGUUCUACAGUCCGACGAUCGGAGAGAAUAUUAAUUCUAGAGAUGGACAUUGGCAAACUAAAAGGAGAAAAUGAAAAAAUAGUGGAAACAUACAGGGGAAAGGAAACAGAAUAUCAAGCGUUACAAGAGACUAACAUGAACAACAGAGGAUUGAGCAUCA
B11: chr20:7981316:7981417:-|3pUTR|ENSG00000125827|unk|total|mutant (ssRNA)
RNA: GGGAGUUCUACAGUCCGACGAUCUAAGUUUUCUAAGCAAUAUUUUUCAAGCCAGAAGUCCUCUAAGUCUUGCCAGUACAAGGCCGUCUUGUGAAGAAAAGUUGAAUACUGUUUUGUUUUCAUCUCAAGGGGUUCCCUGGGUCUCAACAGAGGAUUGAGCAUCA
B12: chr17:744420:744865:-|three_prime_utr|ENSG00000179409|control|control|control (ssRNA)
RNA: GGGAGUUCUACAGUCCGACGAUCAUCAGCAGCUUCUUACCUGUGCGGGAGCGAAAAAGCUGGGCUUCAACAUGGCAGGUCUGUAGGGGUCAGACCCGAGCAGCCUGGACUUUACAGUUAUGUGAAACUGUCCACAAAAAGUCACAACAGAGGAUUGAGCAUCA
B13: chrX:65741840:65741941:+|3pUTR|ENSG00000147065|msi1|FALSE|unique (ssRNA)
RNA: GGGAGUUCUACAGUCCGACGAUCAAAUUGUUUUUGGAGGGGUUUAUGCUCAAUCCAUGUUCUAUUUCAGUGCCAAUAAAAUUUAGGAAGACUUCACAGUGACUCAAUCGUUCUUUGUGGUAUGAGUGGGUAGCUGUAAGAUAUCAACAGAGGAUUGAGCAUCA
B14: ENSG00000198589:be:win_8201|CDS|ENSG00000198589|bound_else_gene|NA|bound_elsewhere_windowed (ssRNA)
RNA: GGGAGUUCUACAGUCCGACGAUCUCAUUCAGGCUUCAAGAGAGGGUCAUUGUGUCAUAUUCUAUGAAAACGGCCUCUUCUGUACAUUCAGUGUGAAUGGAAAACUCCAGGCCACGAUGGAAACAGAUGAUAACAUAAGAGCCACAACAGAGGAUUGAGCAUCA

In this experiment the target is T1, UNK ZnF1-6 (called full-length) (human, UniProt Q9C0B0 30-357).
T1 sequence: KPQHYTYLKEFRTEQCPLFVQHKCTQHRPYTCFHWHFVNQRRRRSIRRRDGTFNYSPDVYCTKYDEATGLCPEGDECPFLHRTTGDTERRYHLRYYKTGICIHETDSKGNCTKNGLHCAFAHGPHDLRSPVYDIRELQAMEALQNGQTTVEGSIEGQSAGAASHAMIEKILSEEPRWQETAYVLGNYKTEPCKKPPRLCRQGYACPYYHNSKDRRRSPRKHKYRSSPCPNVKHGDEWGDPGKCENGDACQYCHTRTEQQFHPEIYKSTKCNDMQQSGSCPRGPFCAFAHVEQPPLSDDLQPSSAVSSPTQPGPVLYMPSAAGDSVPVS
In words: nsRBNS (natural sequence RNA bind-n-seq); RBNS binding buffer (assumed for nsRBNS): 25 mM Tris pH 7.5, 150 mM KCl, 3 mM MgCl2, 0.01% Triton X-100, 500 ug/ml BSA, 20 U/ml SUPERase-In, 4 C; UNK is unkempt and MSI1 is Musashi-1; names of the RNAs are library labels; protein concentration not given here; high values mean tight binding.
In the case of B1, the binding signal amounted to 0.721 enrichment R.
The result for B2 reads 0.45 enrichment R; that for B3, 0.359 enrichment R.
The molecule B4 had a binding signal of 1.09 enrichment R.
In the case of B5, the binding signal was found to be 0.356 enrichment R.
B6 came in with a binding signal of 0.976 enrichment R.
B7 returned a binding signal of 0.801 enrichment R.
In turn, B8 displayed a binding signal of 0.705 enrichment R.
Regarding B9, the binding signal is 0.733 enrichment R.
B10 came in with a binding signal of 0.554 enrichment R.
In the case of B11, the binding signal was determined as 0.53 enrichment R.
As to B12, the binding signal was found to be 0.542 enrichment R.
The result for B13 reads 0.698 enrichment R.
For the molecule B14, the binding signal was 0.445 enrichment R.

These data come from PMC12136788.
